{"source": "ChEMBL document CHEMBL4888484", "about": "“Replenishing the malaria drug discovery pipeline: Screening and hit evaluation of the MMV Hit Generation Library 1 (HGL1) against asexual blood stage Plasmodium falciparum ,using a nano luciferase reporter read-out” (2022)", "note": "Out of some 150,000 compounds screened, about 540 (0.36%) showed an effect of 50% or more. This is one part of the list."}
{"test_system": "Plasmodium falciparum", "experiment": "Primary screen in NF54 nanoGlo assay, in single point, at 2uM, 72h; a lower Z score goes with more inhibition", "type": "functional, Erythrocyte", "conditions": "timepoint 72 hour", "units": {"% Inhibition": "%"}}
{"smiles": "Cc1cc(OC2CCN(C(=O)c3cc4ccccc4s3)CC2)nc(C)n1", "% Inhibition": -10, "Z score": 1.82}
{"smiles": "CC(=O)N[C@H]1CN(S(=O)(=O)Cc2ccccc2Cl)C[C@@H]1C1CC1", "% Inhibition": -1, "Z score": 0.18}
{"smiles": "COCc1ncsc1C(=O)N[C@H]1CC(C)(C)CCc2ccccc21", "% Inhibition": -14, "Z score": 1.39}
{"smiles": "COCCN1CCC(CN(Cc2ccncc2)C(=O)c2ccc(F)c(C)c2)CC1", "% Inhibition": -8, "Z score": 1.57}
{"smiles": "COc1ccc(NS(=O)(=O)c2ccc(F)cc2)cc1N1CCCN(Cc2cccc(C)c2)C1=O", "% Inhibition": -10, "Z score": 1.42}
{"smiles": "O=C(NCCc1nccn1Cc1ccccc1)C1C2CC1CN(Cc1ccccc1)C2", "note": "(stereo not drawn)", "% Inhibition": 0, "Z score": 0.02}
{"smiles": "O=C(NCCc1noc(C(F)(F)F)n1)c1ncoc1C1CC1", "% Inhibition": -4, "Z score": 0.59}
{"smiles": "CNc1cc(-c2cccc(C(=O)N3CCC4(CCO4)CC3)c2)nc(N)n1", "% Inhibition": -25, "Z score": 2.52}
{"smiles": "COc1ccc(N2CN3O[C@]4(CC[C@H]5C[C@@H]4C5(C)C)C[C@@]3(c3ccccc3)C2)cc1", "% Inhibition": -40, "Z score": 4.72}
{"smiles": "CCCNC(=O)CN(Cc1cccs1)c1ccc(OC)cc1", "% Inhibition": -9, "Z score": 1.11}
{"smiles": "O=C(NCCCF)c1ccc(O)cc1O", "% Inhibition": -5, "Z score": 0.55}
{"smiles": "c1ccc2c(c1)ncn2CCN1CCC2(CCCC2)C1", "% Inhibition": 15, "Z score": -2.29}
{"smiles": "CC(C)CC(=O)N1CC[C@@H]2CN(Cc3ccccc3)[C@@H]2C1", "% Inhibition": -8, "Z score": 0.93}
{"smiles": "COc1ccc(C)cc1NC(=O)CN(C)S(=O)(=O)c1ccc2c(c1)C[C@H](C)N2C(=O)C1CCC1", "% Inhibition": 0, "Z score": 0.04}
{"smiles": "O=C(NC1Cc2ccccc2C1)c1cc(C2CC2)n[nH]1", "% Inhibition": -22, "Z score": 1.96}
{"smiles": "C[C@@H](C(=O)NCc1ccco1)n1cncn1", "% Inhibition": -12, "Z score": 2.4}
{"smiles": "Cc1cc(CN2Cc3cnn(CCO)c3C2)c(C)c(CN2CCC[C@H](C)C2)c1", "% Inhibition": -1, "Z score": 0.2}
{"smiles": "CC1CCCN(S(=O)(=O)N2CCCC(C3OCCO3)C2)C1", "note": "(stereo not drawn)", "% Inhibition": -13, "Z score": 1.75}
{"smiles": "O=C(CCc1ccccc1F)N1CCC2(CC1)C[C@H](O)CNC2=O", "% Inhibition": -13, "Z score": 1.29}
{"smiles": "CCCC[C@H](CCC)NC(=O)N1CCOCC1", "% Inhibition": 0, "Z score": 0.07}
{"smiles": "Cc1ccsc1CN1CCC[C@H](N(CCN2CCCCC2)S(C)(=O)=O)C1", "% Inhibition": 9, "Z score": -1.23}
{"smiles": "O=C(CC1CC2CCC1C2)N1CCCC(n2ccnn2)CC1", "note": "(stereo not drawn)", "% Inhibition": 1, "Z score": -0.16}
{"smiles": "C[C@]1(O)CCN(C(=O)c2cc(C#N)c[nH]2)C[C@H]1O", "% Inhibition": -10, "Z score": 1.91}
{"smiles": "NC(=O)NCC(=O)N1CCc2[nH]nc(C(c3ccccc3)c3ccccc3)c2C1", "% Inhibition": -9, "Z score": 1.29}
{"smiles": "CC(C)c1nnc(C(=O)NCCN2C(=O)CNC2=O)s1", "% Inhibition": -2, "Z score": 0.24}
{"smiles": "Cc1noc(C)c1CN(C)Cc1noc(-c2ccco2)n1", "% Inhibition": 0, "Z score": 0.04}
{"smiles": "COc1ncc(-c2c(C#N)c(N)nc3c2CCC[C@@H]3C)cn1", "% Inhibition": 3, "Z score": -0.48}
{"smiles": "Cc1ccc(O)cc1C(=O)NC1CCN(c2n[nH]c(O)n2)CC1", "% Inhibition": -11, "Z score": 1.73}
{"smiles": "CC[C@@]1(C)Cc2ccccc2-c2[nH]c(=O)n(-c3cccc(C)c3)c(=O)c21", "% Inhibition": 0, "Z score": 0.01}
{"smiles": "O=C(Cc1ccc(Br)cc1)Nc1cc(OCc2ccc3c(c2)OCO3)ncn1", "% Inhibition": 8, "Z score": -1.57}
{"smiles": "CC(C)n1cnc(C(=O)N[C@@]2(C)CCS(=O)(=O)C2)c1", "% Inhibition": -4, "Z score": 0.47}
{"smiles": "CCOC[C@H]1CCN(C(=O)Nc2ccnc(OC)n2)C1", "% Inhibition": -5, "Z score": 0.65}
{"smiles": "COCc1ncc(-c2noc([C@@H]3CCc4cc(C)ccc4O3)n2)c(N)n1", "% Inhibition": -10, "Z score": 0.85}
{"smiles": "Cc1ccc(OCc2noc(C3CC3)n2)nc1", "% Inhibition": -14, "Z score": 2.29}
{"smiles": "Cc1ccc(-c2nc(C#N)c(S(=O)(=O)N3CCN(c4ccccc4)CC3)o2)cc1", "% Inhibition": -11, "Z score": 1.51}
{"smiles": "CC(C)(C)n1cc(C(=O)N2CCN3CCOc4cccc2c43)cn1", "% Inhibition": -17, "Z score": 2.48}
{"smiles": "COc1ccc([C@H](C)NCc2ccc(N3CCOCC3)cc2)c(OC)c1", "% Inhibition": 0, "Z score": -0.05}
{"smiles": "CCC(=O)N1CCN(S(=O)(=O)c2ccc(C)cc2)[C@H]1C", "% Inhibition": 37, "Z score": -1.06}
{"smiles": "COc1nc(-c2cccc(C(=O)N(C)[C@H]3COC[C@@H]3O)c2)nn1C", "% Inhibition": -2, "Z score": 0.33}
{"smiles": "N#Cc1ccc(F)c(CS(=O)(=O)N2CCC[C@H](Cn3cncn3)C2)c1", "% Inhibition": 3, "Z score": -0.47}
{"smiles": "O=C(c1ccc2n[nH]c(=O)n2c1)N1CC(=O)N(C2CC2)C1", "% Inhibition": 0, "Z score": 0.01}
{"smiles": "Cc1cccc(CC(=O)N(CC2CCN(C3Cc4ccccc4C3)CC2)C[C@H]2CCCO2)c1", "% Inhibition": -2, "Z score": 0.31}
{"smiles": "Cn1c(C(=O)[C@H](C#N)C(=O)Nc2ccccc2F)cc2ccccc21", "% Inhibition": -4, "Z score": 0.68}
{"smiles": "CCC[C@@H](CN(C)C1CC[S+]([O-])CC1)c1ccccc1", "note": "(stereo partly drawn)", "% Inhibition": -4, "Z score": 0.56}
{"smiles": "Cc1cc(C)c(NS(=O)(=O)c2ccc(CC(=O)N3CCCCC3)s2)c(C)c1", "% Inhibition": -1, "Z score": 0.24}
{"smiles": "COc1ccc(CCNC(=O)c2csc(NC(C)C)n2)cc1", "% Inhibition": -9, "Z score": 1.37}
{"smiles": "Cn1c(N2CCC[C@]3(C2)CC3(F)F)nc2cnccc21", "% Inhibition": 0, "Z score": 0.01}
{"smiles": "O=C(NCc1cn2c(n1)C(=O)N(Cc1ccccc1)CC2)c1cncnc1", "% Inhibition": -10, "Z score": 1.33}
{"smiles": "COc1cccc(-c2ccc(C)nc2N)c1C(=O)N(C(C)C)C(C)C", "% Inhibition": -10, "Z score": 1.39}
{"smiles": "CC(C)Cn1c(=O)[nH]c2cc(-c3nc(-c4ccc(F)cc4)no3)ccc2c1=O", "% Inhibition": 2, "Z score": -0.27}
{"smiles": "O=C(Nc1cccc2ncccc12)c1cccc(-n2cnnn2)c1", "% Inhibition": -6, "Z score": 0.9}
{"smiles": "COc1ccccc1CNC(=O)Cn1c(C)cc(C)c(-c2nc(-c3cccc(Cl)c3)no2)c1=O", "% Inhibition": -12, "Z score": 1.55}
{"smiles": "Cc1cccc(-n2nc(-c3nc(-c4ccc5c(c4)OCO5)no3)c3ccccc3c2=O)c1", "% Inhibition": 13, "Z score": -1.46}
{"smiles": "OC[C@H](CC1OCCO1)Nc1ccc(C(F)(F)F)cn1", "% Inhibition": -2, "Z score": 0.32}
{"smiles": "CCc1ncc2c(n1)CN(C(=O)c1cnc(CN3CCCC3)s1)C2", "% Inhibition": -4, "Z score": 0.72}
{"smiles": "NC(=O)c1cnn(Cc2nnnn2-c2ccccc2)c1", "% Inhibition": -5, "Z score": 0.85}
{"smiles": "Cc1nn(-c2ccccc2)c(N2CCC(C(=O)Nc3ccc(F)c(F)c3)CC2)c1-n1c(C)ccc1C", "% Inhibition": -12, "Z score": 1.65}
{"smiles": "COc1ncccc1C(=O)N[C@H]1CC[C@@H](CO)C1", "% Inhibition": -7, "Z score": 0.92}
{"smiles": "CN1CCCN(C[C@@H]2CN(Cc3cccc(Cl)c3F)C[C@@H]2CO)CC1", "% Inhibition": -2, "Z score": 0.39}
{"smiles": "CCN(C)C[C@H]1CCN(C(=O)Nc2cc(-c3ccco3)ccc2F)C1", "% Inhibition": -16, "Z score": 1.5}
{"smiles": "O=C1Nc2ccccc2CCC1N1CCOC(c2cccc(O)c2)C1", "note": "(stereo not drawn)", "% Inhibition": 5, "Z score": -0.89}
{"smiles": "CC(=O)c1cccc(OCC(=O)Nc2ccccc2-c2nc3ccccc3[nH]2)c1", "% Inhibition": -8, "Z score": 1.28}
{"smiles": "COC(=O)c1ccc(N2CCC[C@H](CN3CCCCCC3)C2)nn1", "% Inhibition": -10, "Z score": 1.39}
{"smiles": "CC(C)[C@@H](c1ccccc1Cl)N(C)C(=O)c1csc(CN)n1", "% Inhibition": -4, "Z score": 0.62}
{"smiles": "Cc1nccn1-c1ncc(NC(=O)Cc2ccccc2)cn1", "% Inhibition": -6, "Z score": 0.86}
{"smiles": "Cc1nsc(NC(=O)N2CC[C@@H]3CCCC[C@H]3C2)n1", "% Inhibition": -2, "Z score": 0.42}
{"smiles": "Cc1cccc(C)c1OCCC(=O)N1Cc2c[nH]nc2[C@@H](C)C1", "% Inhibition": 5, "Z score": -0.77}
{"smiles": "Cc1nnc(N2CCC(C)CC2)[nH]c1=O", "% Inhibition": -3, "Z score": 0.44}
{"smiles": "CN(Cc1ccccc1)[C@@H]1[C@H](O)[C@H](CO)O[C@@H]1CNC(=O)Nc1ccsc1", "% Inhibition": 19, "Z score": -2.17}
{"smiles": "CCc1cccc(-c2nc(-c3cccc(NC(=O)c4ccccc4F)c3)no2)n1", "% Inhibition": -15, "Z score": 2.76}
{"smiles": "Cc1nnc([C@@]23COC[C@@H]2CN(C(=O)c2cccc4c2OCO4)C3)o1", "% Inhibition": -14, "Z score": 2.1}
{"smiles": "Cc1c[nH]c(CN(C)Cc2coc(C(C)C)n2)n1", "% Inhibition": -11, "Z score": 1.33}
{"smiles": "Cc1noc(C)c1CCc1ncnn1Cc1ccccc1", "% Inhibition": 2, "Z score": -0.4}
{"smiles": "Cc1cc(N2CCC[C@H](Cn3cncn3)C2)n2ncnc2n1", "% Inhibition": -7, "Z score": 0.91}
{"smiles": "Nc1nonc1C(=Nc1ccc(Br)cc1)NO", "% Inhibition": -1, "Z score": 0.15}
{"smiles": "CS(=O)(=O)N1CCC[C@@H]1CCc1noc(-c2ccccn2)n1", "% Inhibition": 1, "Z score": -0.23}
{"smiles": "COc1cccc(-c2ccc(N3CCC(N(C)C)CC3)cc2)c1", "% Inhibition": -1, "Z score": 0.2}
{"smiles": "CCc1noc([C@H](C)NC(=O)c2n[nH]c(C)c2Cl)n1", "% Inhibition": -11, "Z score": 2.06}
{"smiles": "CCc1nccn1C[C@H](C)NC1(Cc2ccccc2)CC1", "% Inhibition": 4, "Z score": -0.5}
{"smiles": "Cc1scc(C(=O)N[C@H]2C[C@@H](C(=O)O)C2)c1C", "% Inhibition": -5, "Z score": 0.81}
{"smiles": "Cc1c(Cl)c(C(=O)N2CCn3nc(Cc4ccccc4)cc3C2)nn1C", "% Inhibition": -7, "Z score": 0.94}
{"smiles": "COCCN1CCC[C@@]2(CCN(c3nc(N(C)C)nc(C)c3C)C2)C1", "% Inhibition": -5, "Z score": 0.58}
{"smiles": "CCn1ccc(-c2nc(CCOC)nn2[C@H]2CCS(=O)(=O)C2)n1", "% Inhibition": -13, "Z score": 2.66}
{"smiles": "O=C(Cc1noc(C2CC2c2ccccc2Cl)n1)NC1CCCC1", "note": "(stereo not drawn)", "% Inhibition": -4, "Z score": 0.49}
